Results taken from article PMC1540706.
These are yes or no findings as the source states them, for the method shown. In cells and extracts the contact can be indirect. Some entries that bind do so weakly or less than the wild type. For some assays here: Sequences can lack the tags named with a protein. One block for each binder: values may come before it.

Chains of the proteins cited; added tags and fusions are not shown. Residues count along the entry.
UniProt P49951, residues 1-363: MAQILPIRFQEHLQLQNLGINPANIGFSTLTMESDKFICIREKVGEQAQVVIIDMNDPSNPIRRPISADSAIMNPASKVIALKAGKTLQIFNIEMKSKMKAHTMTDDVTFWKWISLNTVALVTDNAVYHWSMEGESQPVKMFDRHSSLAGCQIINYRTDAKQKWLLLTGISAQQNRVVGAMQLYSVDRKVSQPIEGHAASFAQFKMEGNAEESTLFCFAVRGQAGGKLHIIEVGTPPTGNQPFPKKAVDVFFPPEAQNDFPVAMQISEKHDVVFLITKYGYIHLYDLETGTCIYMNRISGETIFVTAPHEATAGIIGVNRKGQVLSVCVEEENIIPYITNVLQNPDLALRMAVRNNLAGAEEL

Experiments:
[1] = target: GST-human-β2-appendage (700–937) (human) (UniProt P63010); assay: pull-down; Western blotting of β-appendage pull-downs for Dab2, unpublished data; extract not stated; only the target purified
[2] = target: T1, GST-mouse-β1-appendage+hinge (512–943) (mouse) (UniProt O35643); assay: pull-down; GST fusion protein on beads in (rat) brain extract; bound proteins detected by Western blotting (Figures 2B, 5E, 6A-D); only the target purified
T1 sequence: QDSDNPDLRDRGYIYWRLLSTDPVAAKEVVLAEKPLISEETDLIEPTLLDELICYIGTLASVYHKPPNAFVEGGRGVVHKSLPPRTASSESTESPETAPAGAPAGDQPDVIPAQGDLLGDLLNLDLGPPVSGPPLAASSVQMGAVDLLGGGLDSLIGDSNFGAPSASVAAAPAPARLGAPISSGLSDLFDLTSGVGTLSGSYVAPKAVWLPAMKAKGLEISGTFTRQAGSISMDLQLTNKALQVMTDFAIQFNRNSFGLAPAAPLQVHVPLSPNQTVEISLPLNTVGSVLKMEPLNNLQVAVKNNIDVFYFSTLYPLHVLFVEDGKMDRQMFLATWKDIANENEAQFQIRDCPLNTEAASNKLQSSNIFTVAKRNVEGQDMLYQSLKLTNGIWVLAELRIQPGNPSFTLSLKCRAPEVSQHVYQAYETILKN

[3] = target: GST-human-β2-appendage (700–937) Y888V (human) (UniProt P63010); assay: as above
[4] = target: GST-human-β2-appendage (700–937) (human) (UniProt P63010); assay: as above
[5] = target: GST-human-β2-appendage (700–937) K842E (human) (UniProt P63010); assay: as above
[6] = target: GST-human-β2-appendage (700–937) K808E (human) (UniProt P63010); assay: as above
[7] = target: GST-human-β2-appendage+hinge (616–937) (human) (UniProt P63010); assay: as above
[8] = target: GST bovine clathrin terminal domain residues 1–363 (bovine) (UniProt P49951); assay: as above

binding [1]: binds
B1: Dab2/Disabled2 (protein, UniProt P98082 1-770)
chain: MSNEVETSATNGQPDQQAAPKAPSKKEKKKGPEKTDEYLLARFKGDGVKYKAKLIGIDDVPDARGDKMSQDSMMKLKGMAAAGRSQGQHKQRIWVNISLSGIKIIDEKTGVIEHEHPVNKISFIARDVTDNRAFGYVCGGEGQHQFFAIKTGQQAEPLVVDLKDLFQVIYNVKKKEEEKKKIEEASKAVENGSEALMILDDQTNKLKSGVDQMDLFGDMSTPPDLNSPTESKDILLVDLNSEIDTNQNSLRENPFLTNGITSCSLPRPTPQASFLPENAFSANLNFFPTPNPDPFRDDPFTQPDQSTPSSFDSLKSPDQKKENSSSSSTPLSNGPLNGDVDYFGQQFDQISNRTGKQEAQAGPWPFSSSQTQPAVRTQNGVSEREQNGFSVKSSPNPFVGSPPKGLSIQNGVKQDLESSVQSSPHDSIAIIPPPQSTKPGRGRRTAKSSANDLLASDIFAPPVSEPSGQASPTGQPTALQPNPLDLFKTSAPAPVGPLVGLGGVTVTLPQAGPWNTASLVFNQSPSMAPGAMMGGQPSGFSQPVIFGTSPAVSGWNQPSPFAASTPPPVPVVWGPSASVAPNAWSTTSPLGNPFQSNIFPAPAVSTQPPSMHSSLLVTPPQPPPRAGPPKDISSDAFTALDPLGDKEIKDVKEMFKDFQLRQPPAVPARKGEQTSSGTLSAFASYFNSKVGIPQENADHDDFDANQLLNKINEPPKPAPRQVSLPVTKSTDNAFENPFFKDSFGSSQASVASSQPVSSEMYRDPFGNPFA

binding [2]: binds | binding [3]: binds | binding [4]: binds | binding [5]: binds | binding [6]: binds | binding [7]: binds | binding [8]: no binding
B2: amphiphysin (brain extract) (protein, UniProt O08838 1-683)
chain: MADIKTGIFAKNVQKRLNRAQEKVLQKLGKADETKDEQFEEYVQNFKRQEAEGTRLQRELRGYLAAIKGMQEASMKLTESLHEVYEPDWYGREDVKMVGEKCDVLWEDFHQKLVDGSLLTLDTYLGQFPDIKNRIAKRSRKLVDYDSARHHLEALQSSKRKDESRISKAEEEFQKAQKVFEEFNVDLQEELPSLWSRRVGFYVNTFKNVSSLEAKFHKEIAVLCHKLYEVMTKLGDQHADKAFSIQGAPSDSGPLRIAKTPSPPEEASPLPSPTASPNHTLAPASPAPVRPRSPSQTRKGPPVPPLPKVTPTKELQQENIINFFEDNFVPEINVTTPSQNEVLEVKKEETLLDLDFDPFKPDVTPAGSAAATHSPMSQTLPWDLWTTSTDLVQPASGGSFNDFTQPQDTSLFTMQTDQNMAETEQALPTEPQAEEPPTTAAAPTAGLDLGLEMEEPKEEAAIPPGTDAGETVGTEGSTGEEAEAEKAALPAGEGESPEGAKIDVESTELASSESPQAAELEAGAPQEKVIPSVVIEPASNHEGEEHQETTTGTETREATEDVAPQGPAGEKQELATEPTPLDSQAATPAPAGAVDASLSAGDAAQELPPGFLYKVETLHDFEAANSDELTLQRGDVVLVVPSDSEADQDAGWLVGVKESDWLQYRDLATYKGLFPENFTRHLE

binding [2]: binds | binding [3]: binds | binding [4]: binds | binding [5]: binds | binding [7]: binds | binding [8]: no binding
B3: AP180 (brain extract) (protein, UniProt Q05140 1-915)
chain: MSGQTLTDRIAAAQYSVTGSAVARAVCKATTHEVMGPKKKHLDYLIQATNETNVNIPQMADTLFERATNSSWVVVFKALVTTHHLMVHGNERFIQYLASRNTLFNLSNFLDKSGSHGYDMSTFIRRYSRYLNEKAFSYRQMAFDFARVKKGADGVMRTMVPEKLLKSMPILQGQIDALLEFDVHPNELTNGVINAAFMLLFKDLIKLFACYNDGVINLLEKFFEMKKGQCKDALEIYKRFLTRMTRVSEFLKVADEVGIDKGDIPDLTQAPSSLMETLEQHLNTLEGKKPGNNEGSGAPSPLSKSSPATTVTSPNSTPAKTIDTSPPVDIFATASAAAPVSSAKPSSDLLDLQPDFSGARAGAAAPVPPPTGGATAWGDLLGEDSLAALSSVPSEAPISDPFAPEPSPPTTTTEPASASASATTAVTAATTEVDLFGDAFAASPGEAPAASEGATAPATPAPVAAALDACSGNDPFAPSEGSAEAAPELDLFAMKPPETSAPVVTPTASTAPPVPATAPSPAPTAVAATAATTTAAAAATTTATTSAAAATTAAAPPALDIFGDLFDSAPEVAAASKPDVAPSIDLFGTDAFSSPPRGASPVPESSLTADLLSGSGFHCAEDDRHVPLFFTAVDAFAAPSPASTASPAKAESSGVIDLFGDAFGSSASETQPAPQAVSSSSASADLLAGFGGSFMAPSTTPVTPAQNNLLQPNFEAAFGTTPSTSSSSSFDPSGDLLMPTMAPSGQPAPVSMVPPSPAMSASKGLGSDLDSSLASLVGNLGISGTTSKKGDLQWNAGEKKLTGGANWQPKVTPATWSAGVPPQGTVPPTSSVPPGAGAPSVGQPGAGYGMPPAGTGMTMMPQQPVMFAQPMMRPPFGAAAVPGTQLSPSPTPATQSPKKPPAKDPLADLNIKDFL
